Results from the supplement of paper PMC12217912.
The other results are listed elsewhere or left out. Sequences were assembled here from the parent chain. Values near 0.05 are background.

B1: TEV protease; numbered along this chain (parent)
chain: MGESLFKGPRDYNPISSSICHLTNESDGHTTSLYGIGFGPFIITNKHLFRRNNGTLVVQSLHGVFKVKDTTTLQQHLVDGRDMIIIRMPKDFPPFPQKLKFREPQREERICLVTTNFQTKSMSSMVSDTSCTFPSGDGIFWKHWIQTKDGQCGSPLVSTRDGFIVGIHSASNFTNTNNYFTSVPKNFMELLTNQEAQQWVSGWRLNADSVLWGGHKVFMVKPEEPFQPVKEATQL

Variants of: B1
Assay: raw area under fraction-flipped curve 0-4 h after induction (AUC4h, not background-subtracted), DNA-recorder readout of cleavage of the substrate (dimensionless); higher = more cleavage of the substrate by the protease variant
Conditions: temperature: 34 °C; time window: 0-4 h after rhamnose induction
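Also: Bxb1 expression induced with 0.2% (w/v) L-rhamnose at OD600 near 0.5, cultures sampled hourly, flipped fraction per protease–substrate barcode pair counted by paired-end Illumina sequencing.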

Variant | area with substrate ENCYFQS | area with substrate ENDYFQS | area with substrate ENEYFQS | area with substrate ENFYFQS | area with substrate ENIYFQS | area with substrate ENQYFQS | area with substrate ENSYFQS | area with substrate ENTYFQS | area with substrate ENYYFQS | area with substrate ENGYFQS | area with substrate ENKYFQS | area with substrate ENNYFQS | area with substrate ENVYFQS | area with substrate ENWYFQS | area with substrate ENMYFQS | area with substrate ENPYFQS | area with substrate ENRYFQS | area with substrate ENHYFQS
I164A | 0.0659 | 0.0592 | 0.0501 | 0.0446 | 0.0585 | 0.0597 | 0.0589 | 0.0466 | 0.0412 |  |  |  |  |  |  |  |  | 
H168Q | 0.0596 | 0.0518 | 0.0404 | 0.0419 |  | 0.0636 | 0.0611 | 0.0655 | 0.0731 | 0.0629 | 0.122 | 0.0653 | 0.06 | 0.0535 |  |  |  | 
T176D | 0.0561 | 0.0695 |  | 0.0549 | 0.0715 | 0.069 | 0.0622 |  | 0.0584 |  |  |  | 0.0265 | 0.0708 | 0.0535 | 0.072 | 0.0582 | 
T176R | 0.0327 |  |  |  |  | 0.0877 |  | 0.0615 |  |  |  |  |  |  |  |  |  | 0.0542
T176S | 0.062 | 0.0608 | 0.065 | 0.059 | 0.083 | 0.0688 | 0.0365 |  | 0.0533 | 0.0628 | 0.0508 | 0.0562 | 0.0712 |  |  | 0.0452 | 0.0493 | 0.0601
P184G | 0.118 | 0.0411 | 0.0464 |  |  | 0.05 | 0.0644 | 0.0536 |  |  |  | 0.0286 | 0.0475 |  |  | 0.0587 |  | 
P184H | 0.054 |  | 0.092 | 0.0568 | 0.089 | 0.0546 | 0.063 | 0.0458 | 0.056 |  | 0.0458 |  | 0.0547 |  |  |  | 0.0377 | 0.0507
T192E | 0.0774 | 0.0613 | 0.059 | 0.0597 |  | 0.0585 | 0.0566 | 0.061 |  | 0.0628 | 0.0644 | 0.0641 | 0.0788 | 0.0668 | 0.0632 | 0.0548 |  | 
T192G | 0.0688 | 0.066 | 0.0592 |  |  | 0.0582 | 0.0615 | 0.0612 | 0.0479 |  |  | 0.0514 |  |  |  |  |  | 0.0942
V200T | 0.0549 | 0.0884 |  |  | 0.0885 | 0.058 | 0.0636 | 0.0678 |  |  |  | 0.0771 | 0.0607 |  |  | 0.05 | 0.0704 | 
R204K | 0.07 | 0.0826 | 0.0638 | 0.0615 | 0.107 | 0.0576 | 0.0851 |  | 0.0557 | 0.0636 | 0.0503 | 0.0227 | 0.0846 | 0.0522 |  |  | 0.0514 | 
K216D | 0.0634 |  |  |  |  |  |  |  |  |  | 0.0531 |  |  |  |  |  |  | 0.0662
K216H | 0.0559 | 0.0584 | 0.0585 | 0.0555 | 0.104 | 0.0685 | 0.0615 | 0.061 |  | 0.059 | 0.0705 |  | 0.0725 | 0.0606 |  |  | 0.0433 | 0.0581
K216I | 0.0476 |  |  | 0.0634 |  |  | 0.0718 |  |  | 0.0614 |  |  |  |  |  |  | 0.0571 | 
E224K | 0.0712 |  |  | 0.0693 | 0.121 | 0.0669 | 0.0687 | 0.0597 | 0.0529 | 0.0486 | 0.0666 | 0.0652 | 0.0827 |  |  | 0.0827 | 0.0496 | 0.0655
E224Y | 0.0633 | 0.0536 | 0.0712 | 0.0605 | 0.101 | 0.0573 | 0.0642 |  | 0.0534 | 0.0679 |  |  | 0.0721 |  | 0.0608 | 0.0778 | 0.0466 | 0.0554
A232K | 0.0761 |  | 0.0653 | 0.0635 |  | 0.0502 | 0.0647 |  |  | 0.0645 |  |  |  |  |  |  |  | 

Variant | area with substrate ENCYFQS | area with substrate ENDYFQS | area with substrate ENEYFQS | area with substrate ENFYFQS | area with substrate ENIYFQS | area with substrate ENQYFQS | area with substrate ENSYFQS | area with substrate ENTYFQS | area with substrate ENYYFQS | area with substrate ENGYFQS | area with substrate ENKYFQS | area with substrate ENNYFQS | area with substrate ENVYFQS | area with substrate ENWYFQS | area with substrate ENMYFQS | area with substrate ENPYFQS | area with substrate ENRYFQS | area with substrate ENHYFQS
A232M | 0.0684 | 0.0667 |  | 0.0613 |  | 0.0665 | 0.0826 |  | 0.0668 |  |  | 0.0601 | 0.072 |  |  | 0.0504 |  | 0.06
S16D |  | 0.0627 | 0.0364 | 0.0613 | 0.0913 | 0.0601 | 0.0718 | 0.0668 |  | 0.0585 |  | 0.0692 | 0.0615 | 0.0436 | 0.0462 |  |  | 0.0672
N24D |  | 0.0644 |  | 0.0495 |  | 0.0668 | 0.0759 |  |  | 0.063 |  | 0.0597 | 0.057 | 0.0033 | 0.0718 | 0.0573 | 0.0638 | 
S32E |  | 0.0613 | 0.0681 | 0.0607 | 0.087 | 0.0508 | 0.0632 | 0.0627 | 0.0576 | 0.0253 | 0.0537 |  | 0.0791 | 0.0036 | 0.0629 | 0.0757 | 0.0548 | 0.0617
V64L |  | 0.0529 | 0.0596 | 0.0554 |  | 0.0579 | 0.0711 |  | 0.0678 | 0.076 |  | 0.0679 | 0.0764 |  |  | 0.0347 | 0.0643 | 0.0507
V64Q |  | 0.0438 |  |  | 0.071 | 0.0593 |  | 0.0554 | 0.0553 |  | 0.0678 | 0.0506 |  | 0.082 |  | 0.0664 |  | 0.0557
V64R |  | 0.0728 | 0.0562 | 0.0749 |  | 0.0557 | 0.0544 |  |  |  | 0.0609 |  | 0.0736 | 0.0692 |  | 0.073 | 0.0452 | 0.0852
G80P |  | 0.0614 |  |  |  |  |  | 0.0498 |  |  |  |  | 0.0543 |  |  | 0.0626 | 0.0681 | 0.0546
M88D |  | 0.0627 |  |  |  |  | 0.0459 | 0.0191 |  |  |  |  |  |  |  |  |  | 
P93S |  | 0.0651 |  |  |  |  | 0.079 |  |  |  | 0.0619 | 0.0529 | 0.0802 | 0.0815 |  |  |  | 
P104F |  | 0.0439 | 0.0514 | 0.054 | 0.0493 |  | 0.0673 | 0.0543 |  |  |  | 0.0798 |  |  |  |  |  | 0.0349
L112C |  | 0.0655 | 0.0657 | 0.0518 | 0.0689 | 0.0584 | 0.061 |  |  | 0.0465 | 0.0795 | 0.0631 |  |  | 0.0618 | 0.052 |  | 0.0614
F117N |  | 0.0695 | 0.0609 | 0.0673 | 0.0956 | 0.0579 | 0.0573 | 0.0531 | 0.0603 | 0.0565 | 0.0205 | 0.0513 |  | 0.0072 | 0.0741 | 0.0549 | 0.065 | 
D128K |  | 0.057 | 0.0801 | 0.0583 | 0.107 |  | 0.0663 | 0.0712 |  | 0.0924 |  |  |  |  |  | 0.0608 | 0.0596 | 
D128Y |  | 0.064 | 0.0689 | 0.0657 | 0.134 |  | 0.0616 |  |  |  | 0.0868 |  | 0.0843 |  |  | 0.046 | 0.055 | 0.0648
C152I |  | 0.052 | 0.0616 |  | 0.0523 | 0.0659 | 0.0559 | 0.0555 | 0.0362 | 0.0682 | 0.0589 | 0.0641 | 0.069 | 0.06 |  |  | 0.0592 | 0.0561
